# Values quoted from earlier work as cited in patent US11261201B2 (priority 2018, dated 2022).
# Molecular target: LeuS (Escherichia coli, UniProt P07813)
# Settings: Anacor's Anti-LeuS AN3365; cited from earlier work
# Sequence of UniProt P07813 (P07813 whole entry): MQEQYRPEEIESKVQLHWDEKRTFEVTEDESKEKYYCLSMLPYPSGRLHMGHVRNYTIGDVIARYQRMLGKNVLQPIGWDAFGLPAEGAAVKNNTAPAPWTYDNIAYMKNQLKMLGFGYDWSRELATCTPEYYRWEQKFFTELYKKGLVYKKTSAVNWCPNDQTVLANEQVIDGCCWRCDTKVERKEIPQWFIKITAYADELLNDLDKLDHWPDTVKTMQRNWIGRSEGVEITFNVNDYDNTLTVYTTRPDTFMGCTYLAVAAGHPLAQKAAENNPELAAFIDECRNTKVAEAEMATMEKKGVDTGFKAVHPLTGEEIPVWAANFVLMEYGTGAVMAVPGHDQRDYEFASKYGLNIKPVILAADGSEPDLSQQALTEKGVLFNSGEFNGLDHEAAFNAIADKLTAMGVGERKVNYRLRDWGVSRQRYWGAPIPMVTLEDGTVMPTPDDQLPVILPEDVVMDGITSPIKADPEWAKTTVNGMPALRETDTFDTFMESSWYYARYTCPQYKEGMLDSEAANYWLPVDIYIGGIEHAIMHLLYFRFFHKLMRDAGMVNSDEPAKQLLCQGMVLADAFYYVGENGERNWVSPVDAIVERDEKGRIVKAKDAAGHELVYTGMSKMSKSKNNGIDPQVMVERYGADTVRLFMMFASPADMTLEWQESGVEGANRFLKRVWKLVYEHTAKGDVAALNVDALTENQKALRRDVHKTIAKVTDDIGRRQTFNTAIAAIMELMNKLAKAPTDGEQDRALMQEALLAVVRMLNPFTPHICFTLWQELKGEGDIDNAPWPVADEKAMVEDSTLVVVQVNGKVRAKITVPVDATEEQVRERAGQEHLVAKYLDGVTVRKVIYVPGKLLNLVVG
structure (smiles),measurement,value
NC[C@H]1OB(O)c2c(OCCCO)cccc21 [AN3365],outcome in clinical trials,failed in clinical trials due to a high frequency of resistance
